{"source": "the RNAGym collection of RNA variant scans (doi:10.1093/nar/gkz1192)", "parents": {"B1": {"name": "CPEB3 Ribozyme (parent)", "chain": "UAACAGGGGGCCACAGCAGAAGCGUUCACGUCGCAGCCCCUGUCAGAUUCUGGUGAAUCUGCGAAUUCUGCUGUAUAUCUC"}}, "note": "Read counts are not given, so values of variants with three or more changes are uncertain.", "data": [{"variants_of": "B1", "assay": "self-cleavage, relative activity (ratio to wild type); higher = more cleavage; in vitro, sequencing", "method_in_brief": "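CPEB3 self-cleaving ribozyme mutant libraries were made by rounds of error-prone PCR, barcoded, and transcribed in vitro with T7 RNA polymerase for 5 hours at 37°C. Cleavage occurred during transcription and a 15 min DNase I step before EDTA stop. RNAs were reverse transcribed with template switching and Illumina-sequenced, with DNA sequencing mapping barcodes to variants. Relative activity is the variant's cleaved/total read fraction divided by wild type's (minimum 5 reads), averaged across three batches.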", "values": [{"variant": "A2U A5G C44G C50G U54C C62U", "self-cleavage": 0.06}, {"variant": "A2U A5U A15U A18G", "self-cleavage": 0.32}, {"variant": "A2U A5U A21G G33C", "self-cleavage": 0.28}, {"variant": "A2U A5U G63C U78C", "self-cleavage": 0.44}, {"variant": "A2U A13G A15U A20G U41A", "self-cleavage": 0.06}, {"variant": "A2U A13U A20G A45G A47U U48C", "self-cleavage": 0.03}, {"variant": "A2U A13U G33C G42A A45U A57G U78C", "self-cleavage": 0.1}, {"variant": "A2U A13U U25C G52A C62A U66C", "self-cleavage": 0.21}, {"variant": "A2U A13U U43A A45U U48C U51C U60A", "self-cleavage": 0.31}, {"variant": "A2U A15C A64G", "self-cleavage": 0.73}, {"variant": "A2U A15G A21G", "self-cleavage": 0.32}, {"variant": "A2U A15G A45U A56G U72G", "self-cleavage": 0.23}, {"variant": "A2U A15G U25C U31A A45U U49C U60A", "self-cleavage": 0.08}, {"variant": "A2U A15G U26C U76C", "self-cleavage": 0.36}, {"variant": "A2U A15G U41A A64G", "self-cleavage": 0.2}, {"variant": "A2U A15U A45C", "self-cleavage": 0.29}, {"variant": "A2U A15U U48C A65G", "self-cleavage": 0.09}, {"variant": "A2U A15U U69A", "self-cleavage": 0.28}, {"variant": "A2U A18U A21G A65G", "self-cleavage": 0.23}, {"variant": "A2U A18U A45G U72A", "self-cleavage": 0.17}, {"variant": "A2U A18U U41A G53A U54C", "self-cleavage": 0.57}, {"variant": "A2U A20G C38A C39A", "self-cleavage": 0.29}, {"variant": "A2U A20G U25C U41A U60C A64G U72A", "self-cleavage": 0.06}, {"variant": "A2U A20G U25G C59U", "self-cleavage": 0.25}, {"variant": "A2U A20G U41A U49A A64G", "self-cleavage": 0.08}, {"variant": "A2U A20G U51A", "self-cleavage": 0.4}, {"variant": "A2U A20U G55A U69C", "self-cleavage": 0.17}, {"variant": "A2U A21G A35G G36C C37G G53U", "self-cleavage": 0.27}, {"variant": "A2U A21G U31C A56G U74C", "self-cleavage": 0.13}, {"variant": "A2U A28G A35G U60A", "self-cleavage": 0.18}, {"variant": "A2U A28G A35U", "self-cleavage": 0.12}, {"variant": "A2U A28G C39G A56G", "self-cleavage": 0.27}, {"variant": "A2U A28G C39G A56G U60A G73A U80A", "self-cleavage": 0.23}, {"variant": "A2U A28U A47G U48A U60G A64G", "self-cleavage": 0.06}, {"variant": "A2U A45C U49C U80C", "self-cleavage": 0.2}, {"variant": "A2U A56G U58C", "self-cleavage": 0.37}, {"variant": "A2U C4U A18U C34U", "self-cleavage": 0.3}, {"variant": "A2U C11G A13G A18C A75G U80C", "self-cleavage": 0.06}, {"variant": "A2U C11U U43A A45G", "self-cleavage": 0.37}, {"variant": "A2U C12U C23A A45G U54A A77U", "self-cleavage": 0.23}, {"variant": "A2U C12U U58C U60C A64U U69C", "self-cleavage": 0.17}, {"variant": "A2U C23U A56G U60A U72A U78C", "self-cleavage": 0.1}, {"variant": "A2U C23U U49A", "self-cleavage": 0.3}, {"variant": "A2U C34G U72A U80C", "self-cleavage": 0.07}, {"variant": "A2U G6A C32A U54C A64U", "self-cleavage": 0.08}, {"variant": "A2U G6A G33U", "self-cleavage": 0.2}, {"variant": "A2U G6U U25C U60C", "self-cleavage": 0.06}, {"variant": "A2U G7A A20G C29U A45C A56G G61A", "self-cleavage": 0.06}, {"variant": "A2U G7A A21C A56G G61A", "self-cleavage": 0.06}, {"variant": "A2U G7U A35C U58C U69A", "self-cleavage": 0.07}, {"variant": "A2U G7U G10A C17U G36U U72C", "self-cleavage": 0.15}, {"variant": "A2U G8A A64G U69A", "self-cleavage": 0.13}, {"variant": "A2U G8U A15U G30A U41C U51C A77G", "self-cleavage": 0.06}, {"variant": "A2U G8U U54C C62A", "self-cleavage": 0.05}, {"variant": "A2U G9A C32G G46U U54C U69A", "self-cleavage": 0.04}, {"variant": "A2U G10A G24U C27G C62G A64U U69A", "self-cleavage": 0.04}, {"variant": "A2U G22A A35G", "self-cleavage": 0.54}, {"variant": "A2U U25A G36U C50A G53A A77G", "self-cleavage": 0.12}, {"variant": "A2U U25A U48G A56G U58A", "self-cleavage": 0.26}, {"variant": "A2U U25C U31C", "self-cleavage": 0.4}, {"variant": "A2U U25C U31C U54C U76C", "self-cleavage": 0.09}, {"variant": "A2U U25C U48C U78C", "self-cleavage": 0.15}, {"variant": "A2U U25C U58C U66C", "self-cleavage": 0.08}, {"variant": "A2U U25C U80G", "self-cleavage": 0.36}, {"variant": "A2U U26A A64U U72C", "self-cleavage": 0.3}, {"variant": "A2U U26A G30A", "self-cleavage": 0.16}, {"variant": "A2U U26C A28G U43C", "self-cleavage": 0.26}, {"variant": "A2U U26C A45U U74C", "self-cleavage": 0.39}, {"variant": "A2U U26C A57G U66C", "self-cleavage": 0.18}, {"variant": "A2U U26C A77U U80A", "self-cleavage": 0.33}, {"variant": "A2U U26C C34U", "self-cleavage": 0.23}, {"variant": "A2U U31C U66A U69C", "self-cleavage": 0.2}, {"variant": "A2U U41C A64G C68A G70A", "self-cleavage": 0.16}, {"variant": "A2U U41C U51A", "self-cleavage": 1.11}, {"variant": "A2U U41C U54G A56G U72C U74C A77U", "self-cleavage": 0.33}, {"variant": "A2U U43A U54G A57G", "self-cleavage": 0.56}, {"variant": "A2U U43C U78G", "self-cleavage": 0.81}, {"variant": "A2U U48C U54G", "self-cleavage": 0.34}, {"variant": "A2U U51A U72C", "self-cleavage": 1.16}, {"variant": "A2U U51C G55C G70C", "self-cleavage": 0.2}, {"variant": "A2U U51C U54C A64G", "self-cleavage": 0.42}, {"variant": "A2U U54C U58C", "self-cleavage": 0.3}, {"variant": "A2U U67C U69G U76C A77U", "self-cleavage": 0.16}, {"variant": "A3C A5C U41C U58A U69C A75G", "self-cleavage": 0.29}]}]}
